Measured values: the supplement of paper PMC3334620
Whole data set: some 33,000 sequences, median “E-score (-0.5 to 0.5)” near -0.036, cut for the highest 2% near 0.37. The list shows a part of the results.

target: T1, Yer064c (UniProt P40041); experiment: PBM E-score (8-mer binding enrichment) (E-score (-0.5 to 0.5)); higher = stronger / more preferred TF binding; most listed sequences are background and not binding sites; settings: protein concentration: 200 nM; construct: GST-full length
T1 sequence: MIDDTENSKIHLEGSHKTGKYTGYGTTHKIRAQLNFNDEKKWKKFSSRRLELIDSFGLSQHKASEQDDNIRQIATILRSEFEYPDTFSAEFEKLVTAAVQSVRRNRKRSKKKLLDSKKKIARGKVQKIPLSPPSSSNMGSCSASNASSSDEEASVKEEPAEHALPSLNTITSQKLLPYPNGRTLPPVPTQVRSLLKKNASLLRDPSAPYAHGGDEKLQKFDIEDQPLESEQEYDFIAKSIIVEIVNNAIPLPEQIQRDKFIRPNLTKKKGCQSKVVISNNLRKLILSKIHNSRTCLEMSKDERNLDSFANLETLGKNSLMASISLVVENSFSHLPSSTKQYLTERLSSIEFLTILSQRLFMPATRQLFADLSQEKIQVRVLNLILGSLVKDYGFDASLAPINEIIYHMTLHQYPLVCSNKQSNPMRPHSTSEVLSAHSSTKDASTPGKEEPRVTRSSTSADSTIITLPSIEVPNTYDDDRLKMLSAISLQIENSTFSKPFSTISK
In short: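 PURExpress in vitro transcription/translation supplied GST-tagged yeast transcription factors, either full-length or DNA-binding domain. Applied at about 100-200 nM to universal all-10-mer Agilent arrays double-stranded by primer extension, the bound protein was detected with fluorescent anti-GST. E-scores, modified Wilcoxon-Mann-Whitney statistics, were given by the Universal PBM Analysis Suite to ungapped eight-base words pooled with their reverse complements after masliner normalisation.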

Sequence | PBM E-score
TAGCGGCA | -0.267
AAACCAGC | -0.106
GAAGTGGA | -0.108
CCGGACAA | -0.00254
AACGCGGC | -0.203
GACCTCCA | -0.142
TCCGGCGA | -0.00403
GGAGTATA | 0.00857
GTGATCGA | 0.031
CGGTCTTC | -0.183
CCCATGAG | 0.056
GGAAAGCC | -0.131
ATGAATGA | 0.234
TGGTGCAA | -0.315
ATTGGCCA | -0.121
GTCCCTTA | -0.172
AACGACGA | 0.15
GAGAGCTA | -0.264
ACCGTACA | -0.133
GAAGATGA | 0.159
GTACGCCA | -0.159
CTGACTAC | 0.469
ACTAAACG | 0.171
CACCGCAC | -0.0803
GCATGGCA | -0.221

Sequence | PBM E-score
ACGGGTAA | 0.143
CAGCTTGG | -0.0107
GCGAAACC | -0.0667
AAAGGAAC | -0.0949
GCGCCCAA | -0.077
TCTATAGA | -0.113
CTAACCTC | 0.0602
GAGGCCCC | -0.363
AGGCCCAT | -0.0515
CCGAGAGC | -0.217
ATTAGCAA | 0.0422
AAAGGTTA | -0.0216
ACCGCCGC | -0.0775
TATCGTAA | 0.00386
ACCGCGTC | -0.127
GGTGATAC | -0.0115
AAAAGCAG | -0.0138
ACACGTGC | -0.0356
ATAAGGAC | 0.00656
CAACGGTA | -0.12
ACGGGAGC | -0.0353
CACAGCAG | 0.0201
TAGGTCCA | -0.16
CCAGATGA | 0.187
AATACGTA | -0.0805

Sequence | PBM E-score
TATCTTAA | 0.106
ATTATCAC | 0.0883
GGGGGCGA | -0.27
CATGAACG | -0.145
AGTCTCAC | 0.337
CTGGCACC | -0.315
CCCAAGCC | -0.171
AATCGATT | 0.26
CAGCCACA | 0.0182
CTGCGTAC | -0.105
GTGTGTAA | 0.185
AGAACCAC | -0.00253
ACGATCGT | 0.241
GTGGGGAA | -0.113
CCTCTTGA | 0.149
GGCCTGTA | -0.386
CTGCGCAC | -0.017
AAGGCCAT | -0.0293
GCCGGTCA | -0.296
GGTGTTAA | 0.00491
CGAGTTAC | 0.0312
GCGAAACA | 0.133
ACCATTGC | -0.132
AGAGGTTC | -0.2
CTCAATTC | 0.0515

Sequence | PBM E-score
CTCACGAG | 0.0978
ATCATGCA | 0.225
CCGAATAC | -0.0874
AAATAATG | 0.0711
GGACGAAC | -0.0589
GCTAAGCA | -0.0533
CACATTGA | 0.0834
ATATGGTA | 0.0907
AACGTAGT | 0.141
CGTTGTAA | -0.0976
ACCCTGGC | -0.16
GTAAGATA | -0.00585
TATCAAAA | 0.136
ATATACAA | 0.0885
GATCACAA | 0.164
ACTACATC | 0.195
CTCGTCAC | 0.107
GAAACGGC | -0.195
CAACTTTA | 0.0743
GCCCGAGA | 0.0244
CCAAGCAC | 0.00908
AGGACGTA | -0.18
GGTCGGAA | -0.23
CAGTCAAC | 0.36
AAAACAGG | -0.126

Sequence | PBM E-score
ATGCACAG | -0.0936
AGACAACC | -0.0476
AATGTCAA | -0.156
AGCCTGAG | 0.0654
CAGTTTTC | -0.0706
CATTAAGA | -0.0756
TATGCAGA | 0.201
ACATAAAG | 0.0797
AGCAGCCC | -0.23
GGGCTCTA | -0.0583
CCCATCGA | 0.056
ACAGGTTC | -0.0525
CGATACCG | -0.131
AAGTAGGA | 0.0206
ACTTGCTA | -0.0122
CGATATGA | 0.0754
GTAAGTGA | 0.131
AATTGCTA | -0.154
CTCCTCCC | -0.183
CCTTACGC | -0.117
ACCCCCGT | -0.271
CATATTAC | 0.0585
AATTACTA | 0.159
GCTGAAAC | 0.13
AAGATACG | -0.0653

Sequence | PBM E-score
CGCATAAG | -0.0988
CATACTCC | 0.0254
AGTTGCTG | -0.0363
AGACTCGC | 0.336
ACGGGGCA | -0.215
AATGCTGG | -0.117
AAACCAAG | 0.0139
ATTCTGGG | 0.0516
CCCGCGGA | -0.204
ATGAGTCG | 0.474
GACAGCTA | -0.168
ATACAGGC | -0.351
CCTGCAAC | -0.0909
ATTAAATA | 0.148
AGATGTAC | -0.161
ATTATCAG | 0.169
CGATGAGA | 0.0402
AGGGTAAC | -0.157
CCTATGTA | -0.0493
GTATAGAC | 0.13
AGCAGGTA | -0.131
CGGCGCTA | 0.0185
ACCAAGGC | -0.113
CGCAAACG | -0.0502
CAAACCGG | -0.0378

Sequence | PBM E-score
GCAGATGA | 0.0855
ATAGTCAC | 0.481
AGTGTCCG | -0.187
AGGATATC | -0.186
GCTCTGAA | -0.138
ATCCGGGA | -0.104
ACGGTAAC | 0.0774
AAGGTCCC | -0.0918
CAGACCGA | -0.0945
CTTGATCA | 0.0673
GCCACAAA | -0.0925
ACGAATCT | 0.123
CGATTCAA | 0.269
ATCACACC | 0.181
CATGTGGA | 0.058
GGGCTCAC | -0.0905
AGACGAAC | 0.0394
ACCAGGTC | -0.118
CTCTACAC | -0.093
CAGGACAA | 0.00705
GAAAATCA | 0.261
CCGTACGA | -0.0292
CCGGCCGC | -0.109
AGTCATGC | 0.487
CCCACGTA | -0.0556

Sequence | PBM E-score
CTTCACCA | -0.174
AGGAAATA | 0.113
ACACTCAG | 0.0179
ATTTTGGA | 0.0812
CACTTCCC | -0.141
AATTGTAT | -0.131
ACAGTGTC | -0.197
TGTCAAAA | 0.0558
CTGAAATC | 0.127
CTCTAGGA | 0.0144
AAAAAAGG | 0.108
AGGAATCA | 0.429
AGCCCTGA | 0.0478
GGCCCGTA | -0.259
ACTGAATC | 0.361
GAGTCGTA | 0.453
CCTTTGCG | -0.2
AATTCTAT | -0.0536
GTTGTGTA | 0.00511
CAAGAAAG | 0.0812
CTTGTATA | 0.147
CCACCCCC | -0.286
TCTAACAA | -0.00355
TCCCGGCA | -0.207
CCAATCAC | 0.182

Sequence | PBM E-score
AGGAACCA | -0.0565
GTCTGTGA | 0.252
AGTACTGC | -0.053
ATGTGCTG | 0.0265
ACACGGCT | 0.0212
ATACCAAC | -0.0594
AATTGCTG | -0.134
CATACGCG | -0.0256
GCCATGAA | -0.0661
GGAGACGA | -0.119
CCCTTGCA | -0.253
GTCAGACA | 0.271
ATGCGGCC | -0.108
TAACCCCA | -0.0748
GCATCGAC | -0.0987
CGGCCACC | -0.219
CCAATGAC | 0.271
CCAGGCGA | -0.104
ATCAGCTG | 0.203
